Source: patent US20100093623A1, “COMPOSITIONS AND METHODS FOR […]-LIKE RECEPTOR ACTIVITY AND USES THEREOF” (Burnham Institute for Medical Research, priority 2008, published 2010)

Target: T1, NLRP1 (Homo sapiens, UniProt Q9C000)
T1 sequence (Q9C000 1-1473): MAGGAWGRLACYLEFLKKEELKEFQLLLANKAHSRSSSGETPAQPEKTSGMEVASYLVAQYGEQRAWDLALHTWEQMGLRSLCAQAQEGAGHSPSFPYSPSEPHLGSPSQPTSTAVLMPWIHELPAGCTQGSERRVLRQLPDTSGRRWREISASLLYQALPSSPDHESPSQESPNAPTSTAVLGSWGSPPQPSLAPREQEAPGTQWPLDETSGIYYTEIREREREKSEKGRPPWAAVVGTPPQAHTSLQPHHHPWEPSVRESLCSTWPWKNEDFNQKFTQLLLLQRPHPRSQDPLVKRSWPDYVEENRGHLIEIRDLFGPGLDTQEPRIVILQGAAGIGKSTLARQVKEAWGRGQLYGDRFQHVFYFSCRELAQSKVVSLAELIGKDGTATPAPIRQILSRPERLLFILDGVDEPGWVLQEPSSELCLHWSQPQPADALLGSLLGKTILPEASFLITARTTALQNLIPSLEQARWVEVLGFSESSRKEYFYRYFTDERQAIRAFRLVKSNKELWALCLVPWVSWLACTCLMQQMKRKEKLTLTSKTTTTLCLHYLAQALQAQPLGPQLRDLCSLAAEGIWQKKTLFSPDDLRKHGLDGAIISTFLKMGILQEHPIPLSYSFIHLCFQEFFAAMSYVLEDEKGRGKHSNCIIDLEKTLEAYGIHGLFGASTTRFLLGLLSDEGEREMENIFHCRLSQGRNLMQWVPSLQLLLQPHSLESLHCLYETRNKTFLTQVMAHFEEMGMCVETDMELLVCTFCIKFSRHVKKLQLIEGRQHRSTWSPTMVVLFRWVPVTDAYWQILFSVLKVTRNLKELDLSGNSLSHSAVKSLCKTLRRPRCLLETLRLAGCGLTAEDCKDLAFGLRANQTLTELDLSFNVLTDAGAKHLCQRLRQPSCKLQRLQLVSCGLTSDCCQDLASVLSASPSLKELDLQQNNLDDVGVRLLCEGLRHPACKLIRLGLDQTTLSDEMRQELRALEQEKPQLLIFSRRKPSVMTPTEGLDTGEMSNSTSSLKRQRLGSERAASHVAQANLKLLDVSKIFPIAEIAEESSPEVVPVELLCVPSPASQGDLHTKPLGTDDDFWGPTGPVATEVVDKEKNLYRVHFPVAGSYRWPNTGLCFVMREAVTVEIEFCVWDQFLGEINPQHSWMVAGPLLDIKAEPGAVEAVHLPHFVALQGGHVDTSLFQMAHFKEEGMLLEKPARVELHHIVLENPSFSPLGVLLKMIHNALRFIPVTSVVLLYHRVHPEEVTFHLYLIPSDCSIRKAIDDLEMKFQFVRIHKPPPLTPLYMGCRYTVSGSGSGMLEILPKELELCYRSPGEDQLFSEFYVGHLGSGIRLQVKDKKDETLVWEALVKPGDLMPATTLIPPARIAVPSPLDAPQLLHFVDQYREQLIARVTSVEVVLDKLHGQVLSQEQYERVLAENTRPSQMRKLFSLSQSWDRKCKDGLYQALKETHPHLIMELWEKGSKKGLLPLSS
Test: FITC-ATP binding to NLRP1 by fluorescence polarization assay (FPA)
Conditions: various amounts of protein; NLRP1 0.1 μM

| Substance | concentration-dependence of suppression of FITC-ATP binding to NLRP1 |
| --- | --- |
| Bcl-2: anti-apoptotic protein; recombinant GST-fusion lacking C-terminal transmembrane domain (SEQ ID NO:3/4) | concentration-dependent and saturable |
| Bcl-XL: anti-apoptotic protein; recombinant GST-fusion lacking C-terminal transmembrane domain | concentration-dependent and saturable |
